Results as given in publication PMC12339391.
Residue numbers refer to the chain shown, from its start. Results are given in words; binding and its absence hold for the method and conditions named. For some of these results: Binding seen in cells or lysates may run through a third protein. Some binding calls cover weakened binding; strength is not graded here. For some of these results: Tags and fused reporters may be left off the sequences shown.

Amino acid sequences for entries named in this document (tags omitted). A change or cut given only in a name is not applied to a line headed by its entry. Chains listed by the source or under a name are the forms on record and can include a tag or linker. Residues count along the entry.
UniProt Q5I0X4: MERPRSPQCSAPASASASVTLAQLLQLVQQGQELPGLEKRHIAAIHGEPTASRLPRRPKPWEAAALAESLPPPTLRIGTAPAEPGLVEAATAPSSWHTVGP
HsPEX39(4A) (recombinant HsPEX39 with the KPWE motif changed to AAAA) (Q5I0X4, form named): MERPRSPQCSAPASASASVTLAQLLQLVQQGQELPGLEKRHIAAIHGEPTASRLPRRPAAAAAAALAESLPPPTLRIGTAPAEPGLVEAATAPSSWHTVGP
HsPEX39(ΔN,4A) (residues 48–101 with the KPWE motif changed to AAAA) (Q5I0X4, form named): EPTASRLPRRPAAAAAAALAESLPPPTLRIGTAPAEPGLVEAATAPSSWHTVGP
UniProt Q92968: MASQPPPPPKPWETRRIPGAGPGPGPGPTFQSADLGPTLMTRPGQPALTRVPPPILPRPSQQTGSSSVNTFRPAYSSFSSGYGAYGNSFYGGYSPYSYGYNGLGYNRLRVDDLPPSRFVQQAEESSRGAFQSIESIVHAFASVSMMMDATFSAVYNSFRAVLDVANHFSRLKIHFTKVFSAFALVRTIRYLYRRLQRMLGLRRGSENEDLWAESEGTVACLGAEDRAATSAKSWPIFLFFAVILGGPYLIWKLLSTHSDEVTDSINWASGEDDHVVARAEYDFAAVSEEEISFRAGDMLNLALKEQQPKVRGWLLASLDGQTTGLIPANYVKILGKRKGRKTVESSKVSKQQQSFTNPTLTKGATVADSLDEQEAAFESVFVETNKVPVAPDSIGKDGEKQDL
NtPEX13(4A) (NtPEX13 with a KPWE-to-AAAA substitution) (Q92968, form named): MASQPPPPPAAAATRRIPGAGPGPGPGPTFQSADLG

Legend:
[1] = target: T1, [^35S]H6PEX7 (radiolabelled, N-terminally His-tagged human PEX7) (human) (UniProt O00628); test: native gel or EMSA; chase: preformed [35S]H6PEX7–H6PHYH–GST-HsPEX39 complex chased with a 100-fold molar excess of GST-HsPEX39(ΔN); aliquots at time points; control GST-Ub; autoradiography; only the binder purified
T1 sequence (chain, [35S]methionine): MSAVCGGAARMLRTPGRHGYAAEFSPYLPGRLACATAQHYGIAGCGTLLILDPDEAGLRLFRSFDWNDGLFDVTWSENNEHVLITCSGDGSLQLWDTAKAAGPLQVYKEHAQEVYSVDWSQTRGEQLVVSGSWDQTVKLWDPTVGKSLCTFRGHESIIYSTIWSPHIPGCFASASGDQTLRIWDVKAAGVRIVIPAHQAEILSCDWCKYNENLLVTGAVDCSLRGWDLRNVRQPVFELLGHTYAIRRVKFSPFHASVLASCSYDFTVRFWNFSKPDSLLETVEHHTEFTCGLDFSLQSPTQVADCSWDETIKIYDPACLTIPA

[2] = target: T1, [^35S]H6PEX7 (radiolabelled, N-terminally His-tagged human PEX7) (human); test: native gel or EMSA; chase: preformed [35S]His-PEX7 complexes (5 μM NtPEX13 chased with 25 μM GST-HsPEX39; 50 nM GST-HsPEX39 chased with 5 μM GST-HsPEX39(48–101)); 20 min, aliquots at time points; control GST-Ub; autoradiography; only the binder purified
[3] = target: T1, [^35S]H6PEX7 (radiolabelled, N-terminally His-tagged human PEX7) (human); test: native gel or EMSA; [35S]His-PEX7 (0.4 μl reticulocyte lysate) pre-incubated with ONE recombinant protein (HsPEX39 variant 4 μg, His-PEX5(1–324) 1 μg, His-PHYH 100 ng or NtPEX13 variant 4 μg) in 20 μl 20 mM Tris-HCl pH 8.0, 5 mM DTT, 0.025% BSA; non-denaturing 8% gel, 4 °C; autoradiography; only the binder purified
[4] = target: T2, [^35S]H6PEX7(E77A) (human) (UniProt O00628); test: as above
T2 sequence (chain, [35S]methionine): T1 sequence (chain, [35S]methionine) with E77A

[5] = target: T1, [^35S]H6PEX7 (radiolabelled, N-terminally His-tagged human PEX7) (human); test: native gel or EMSA; apparent K_d: [35S]H6PEX7 (reticulocyte lysate) with increasing amounts of recombinant HsPEX39 (no GST tag) or NtPEX13, no other protein added; native PAGE and autoradiography; only the binder purified
[6] = target: HsPEX39-FLAG-HA (C-terminally FLAG-HA-tagged human PEX39) (human) (UniProt Q5I0X4); test: co-IP; anti-FLAG M2 magnetic beads; lysates of HCT116 or HEK293T cells stably expressing the FLAG-HA-tagged bait; 50 mM Tris-HCl pH 7.5, 150 mM NaCl, 0.5% NP-40 alternative, 1 mM DTT, 4 h at 4 °C; washes with 400 mM NaCl; immunoblot of endogenous prey
[7] = target: T3, PEX7(E77A)-FLAG-HA (human) (UniProt O00628); test: as above
T3 sequence: T1 sequence (chain, [35S]methionine) with E77A

[8] = target: T4, PEX7-FLAG-HA (C-terminally FLAG-HA-tagged human PEX7) (human) (UniProt O00628); test: as above
T4 sequence: T1 sequence (chain, [35S]methionine)

[9] = target: T1, [^35S]H6PEX7 (radiolabelled, N-terminally His-tagged human PEX7) (human); test: native gel or EMSA; apparent K_d: [35S]H6PEX7 (reticulocyte lysate) with increasing amounts of recombinant HsPEX39 (no GST tag) in the presence of H6PHYH; native PAGE and autoradiography; only the binder purified

Substance: GST-HsPEX39 (N-terminally GST-tagged human PEX39, C6ORF226) (from UniProt Q5I0X4 1-101)
- binding [1]: binds
- binding [2]: binds
- binding [3]: binds
- binding [4]: no binding (tested: 4 μg in 20 μl)

Substance: HsPEX39(4A) (recombinant HsPEX39 with the KPWE motif changed to AAAA) (from UniProt Q5I0X4 1-101)
- binding [3]: no binding (tested: 4 μg in 20 μl)

Substance: HsPEX39(ΔN) (N-terminally truncated HsPEX39, residues 48–101) (from UniProt Q5I0X4 48-101) (domain or fragment)
- binding [3]: binds

Substance: HsPEX39(ΔN,4A) (residues 48–101 with the KPWE motif changed to AAAA) (from UniProt Q5I0X4 48-101) (domain or fragment)
- binding [3]: no binding (tested: 4 μg in 20 μl)

Substance: NtPEX13 (HsPEX13 residues 1–36 fused to Sumo1 with a hexa-histidine tag) (from UniProt Q92968 1-36) (domain or fragment)
- binding [5]: binds
- binding [2]: binds
- binding [3]: binds
- binding [4]: no binding (tested: 4 μg in 20 μl)

Substance: NtPEX13(4A) (NtPEX13 with a KPWE-to-AAAA substitution) (from UniProt Q92968 1-36) (domain or fragment)
- binding [3]: no binding (tested: 4 μg in 20 μl)

Substance: endogenous HsPEX13 (from UniProt Q92968 1-403)
- binding [6]: no binding
- binding [7]: no binding
- binding [8]: binds

Substance: endogenous HsPEX39 (C6ORF226) (from UniProt Q5I0X4 1-101)
- binding [7]: no binding
- binding [8]: binds

Substance: recombinant HsPEX39 lacking the GST tag (from UniProt Q5I0X4 1-101)
- binding [9]: binds
- binding [5]: binds
